Consider 28 compounds from the antibiotic and cytotoxicity screens of Wong et al. (2023).

The other results are listed elsewhere or left out.

Experiment [1] deals with HSkMC (human skeletal muscle cells). The experiment is described as follows: cytotoxicity call (relative viability < 0.9). The note with it: 10 µM.
For experiment [2], the system named is HepG2. The experiment is described as follows: cytotoxicity call (relative viability < 0.9). The note with it: 10 µM.
The subject of experiment [3] is S. aureus RN4220. The experiment is described as follows: growth inhibition call (relative growth <= 0.2). The note with it: 50 µM.

As for `C[C@H]1CN([C@@H](C)CO)C(=O)c2ccccc2-c2ccccc2CO[C@H]1CN(C)C(=O)Nc1cccc(F)c1`, the cytotoxicity call in experiment [1] and in experiment [2] was “inactive” in each case. In addition, the growth inhibition call in experiment [3] is “inactive”.
Consider `C[C@@H]1CCCCO[C@H](CN(C)C(=O)Cc2ccccc2)[C@H](C)CN([C@H](C)CO)C(=O)c2cc(NS(=O)(=O)c3cccs3)ccc2O1`, for which the cytotoxicity call in experiment [1] and in experiment [2] was “inactive” throughout. Moreover, the growth inhibition call in experiment [3] is “inactive”.
`C[C@@H]1CCCCO[C@@H](CN(C)S(=O)(=O)c2ccc(F)cc2)[C@@H](C)CN([C@@H](C)CO)C(=O)c2cc(NC(=O)C3CCCCC3)ccc2O1`: the cytotoxicity call in experiment [1] and in experiment [2] was “inactive” in each case. In addition, in experiment [3], the growth inhibition call is “inactive”.
As for `Cc1ccccc1S(=O)(=O)N1C[C@H](O)COC[C@H]2O[C@H](CC(=O)NCCc3ccncc3)CC[C@@H]21`, the cytotoxicity call in experiment [1] and in experiment [2] was “inactive” in each case. Also, the growth inhibition call in experiment [3] was “inactive”.
For the compound `C[C@@H]1CN([C@@H](C)CO)C(=O)Cc2cc(NC(=O)CCN3CCOCC3)ccc2O[C@H]1CN(C)Cc1ccccc1`, the cytotoxicity call in experiment [1] and in experiment [2] was “inactive” each time. Further, in experiment [3], the growth inhibition call was “inactive”.
As for `C[C@H](CO)N1C[C@H](C)[C@@H](CN(C)S(C)(=O)=O)Oc2ccc(NC(=O)CCCCCC(=O)Nc3ccccc3N)cc2C1=O`, the cytotoxicity call in experiment [1] and in experiment [2] was “inactive” in each case. The growth inhibition call in experiment [3] is “inactive”.
Consider `C[C@H](CO)N1C[C@H](C)[C@@H](CN(C)C(=O)Nc2ccc(C(F)(F)F)cc2)Oc2ccc(NC(=O)CCC(F)(F)F)cc2C1=O`, for which the cytotoxicity call in experiment [1] and in experiment [2] was “inactive” each time. Besides, the growth inhibition call in experiment [3] was “active”.
Take `COc1ccc(S(=O)(=O)N(C)C[C@H]2OCCCC[C@H](C)Oc3ccc(NC(=O)Nc4ccc(F)cc4)cc3C(=O)N([C@H](C)CO)C[C@@H]2C)cc1`: the cytotoxicity call in experiment [1] and in experiment [2] was “inactive” throughout. For the same compound, in experiment [3], the growth inhibition call is “inactive”.
On to `C[C@@H]1CN([C@@H](C)CO)C(=O)Cc2cc(NC(=O)Nc3ccc4c(c3)OCO4)ccc2O[C@@H]1CN(C)Cc1ccc(Oc2ccccc2)cc1`, for which the cytotoxicity call in experiment [1] was “inactive”. Moreover, the cytotoxicity call in experiment [2] was “active”. Moreover, the growth inhibition call in experiment [3] is “inactive”.
Consider `C/C=C/c1ccc2c(c1)O[C@H](CN(C)S(=O)(=O)c1ccccc1)[C@H](C)CN([C@@H](C)CO)S2(=O)=O`, for which the cytotoxicity call in experiment [1] and in experiment [2] was “inactive” each time. Also, the growth inhibition call in experiment [3] was “inactive”.
For the compound `COCC#Cc1ccc2c(c1)O[C@H](CN(C)Cc1ccccc1F)[C@@H](C)CN([C@@H](C)CO)S2(=O)=O`, the cytotoxicity call in experiment [1] and in experiment [2] was “inactive” throughout. Besides, in experiment [3], the growth inhibition call is “inactive”.
In the case of `Cc1noc(C)c1S(=O)(=O)N(C)C[C@@H]1Oc2ccc(NS(=O)(=O)c3ccccc3)cc2CC(=O)N([C@H](C)CO)C[C@H]1C`, the cytotoxicity call in experiment [1] and in experiment [2] was “inactive” each time. In experiment [3], the growth inhibition call was “inactive”.
For `C[C@H]1CCCCO[C@H](CN(C)C(=O)C2CCCCC2)[C@@H](C)CN([C@@H](C)CO)C(=O)c2cc(NS(=O)(=O)c3ccccc3)ccc2O1`, the cytotoxicity call in experiment [1] and in experiment [2] was “inactive” each time. In addition, in experiment [3], the growth inhibition call is “inactive”.
In the case of `COc1ccc(NC(=O)N(C)C[C@@H]2Oc3c(NS(=O)(=O)c4cn(C)cn4)cccc3C(=O)N([C@H](C)CO)C[C@H]2C)cc1`, the cytotoxicity call in experiment [1] and in experiment [2] was “inactive” in each case. Moreover, the growth inhibition call in experiment [3] was “inactive”.
In the case of `C[C@H]1CN([C@@H](C)CO)C(=O)c2cc(NC(=O)CCCN(C)C)ccc2O[C@@H]1CN(C)Cc1ccncc1`, the cytotoxicity call in experiment [1] and in experiment [2] was “inactive” in each case. Moreover, in experiment [3], the growth inhibition call was “inactive”.
In the case of `CC(C)N1C[C@@H](C)[C@H](CN(C)Cc2ccc(OCCCC(F)(F)C(F)(F)C(F)(F)C(F)(F)C(F)(F)C(F)(F)C(F)(F)C(F)(F)F)cc2)Oc2c(NC(=O)c3ccncc3)cccc2C1=O`, the cytotoxicity call in experiment [1] and in experiment [2] was “inactive” each time. In addition, in experiment [3], the growth inhibition call is “inactive”.
With `C[C@@H]1CCCCO[C@@H](CN(C)S(=O)(=O)c2cn(C)cn2)[C@@H](C)CN([C@H](C)CO)C(=O)c2cc(N(C)C)ccc2O1`, the cytotoxicity call in experiment [1] and in experiment [2] was “inactive” each time. Moreover, the growth inhibition call in experiment [3] is “inactive”.
Turning to `CCCN(C)C[C@@H]1OCCCC[C@@H](C)Oc2ccc(NS(C)(=O)=O)cc2C(=O)N([C@H](C)CO)C[C@@H]1C`, the cytotoxicity call in experiment [1] and in experiment [2] was “inactive” each time. Also, in experiment [3], the growth inhibition call was “inactive”.
On to `COc1ccc(NC(=O)Nc2ccc3c(c2)[C@H]2C[C@@H](CC(=O)NCc4ccncc4)O[C@@H](CO)[C@H]2O3)cc1`, for which the cytotoxicity call in experiment [1] and in experiment [2] was “inactive” in each case. Also, in experiment [3], the growth inhibition call was “inactive”.
`CCCCS(=N)(=O)CC[C@H](N)C(=O)O` (some centres undefined): the cytotoxicity call in experiment [1] and in experiment [2] was “inactive” each time. The growth inhibition call in experiment [3] was “inactive”.
Take `O=C(Nc1ccc(Cl)cc1C(=O)c1ccc(Cl)cc1)c1cc(Br)ccc1NS(=O)(=O)c1ccc(Cl)cc1`: in experiment [1], the cytotoxicity call was “inactive”. Besides, the cytotoxicity call in experiment [2] was “active”. Besides, in experiment [3], the growth inhibition call is “inactive”.
As for `CN(C)CCCNC(=O)C[C@@H]1CC[C@@H]2[C@H](COC[C@@H](O)CN2S(=O)(=O)c2ccc(F)cc2)O1`, the cytotoxicity call in experiment [1] and in experiment [2] was “inactive” throughout. Moreover, the growth inhibition call in experiment [3] was “inactive”.
In the case of `CC(=O)Nc1nnc(-c2ccno2)o1`, the cytotoxicity call in experiment [1] and in experiment [2] was “inactive” each time. Besides, the growth inhibition call in experiment [3] is “inactive”.
On to `O=C(C[C@H]1CC[C@@H](NS(=O)(=O)c2ccccc2F)[C@H](CO)O1)NCCCN1CCOCC1`, for which the cytotoxicity call in experiment [1] and in experiment [2] was “inactive” in each case. Moreover, the growth inhibition call in experiment [3] was “inactive”.
On to `Nc1ccccc1C(=O)NCCN1CCNC1=O`, for which the cytotoxicity call in experiment [1] and in experiment [2] was “inactive” in each case. Besides, in experiment [3], the growth inhibition call was “inactive”.
With `COc1cccc(NC(=O)N(C)C[C@@H]2Oc3cc(C#CC4(O)CCCC4)ccc3S(=O)(=O)N([C@H](C)CO)C[C@H]2C)c1`, the cytotoxicity call in experiment [1] and in experiment [2] was “inactive” throughout. For the same compound, the growth inhibition call in experiment [3] is “inactive”.
Turning to `NC(=O)c1cccc(S(N)(=O)=O)c1`, the cytotoxicity call in experiment [1] and in experiment [2] was “inactive” each time. Also, in experiment [3], the growth inhibition call is “inactive”.
Regarding `Cc1noc(C)c1NC(=O)N(C)C[C@@H]1Oc2cc(Br)ccc2S(=O)(=O)N([C@H](C)CO)C[C@@H]1C`, the cytotoxicity call in experiment [1] and in experiment [2] was “inactive” throughout. The growth inhibition call in experiment [3] was “inactive”.
